Experimental data: the supplement of paper PMC3334620
Over roughly 33,000 sequences, “E-score (-0.5 to 0.5)” has its median near -0.017; the highest 2% begin near 0.3. This is one part of the list.

Biological target: T1, Sut1 (UniProt P53032)
T1 sequence: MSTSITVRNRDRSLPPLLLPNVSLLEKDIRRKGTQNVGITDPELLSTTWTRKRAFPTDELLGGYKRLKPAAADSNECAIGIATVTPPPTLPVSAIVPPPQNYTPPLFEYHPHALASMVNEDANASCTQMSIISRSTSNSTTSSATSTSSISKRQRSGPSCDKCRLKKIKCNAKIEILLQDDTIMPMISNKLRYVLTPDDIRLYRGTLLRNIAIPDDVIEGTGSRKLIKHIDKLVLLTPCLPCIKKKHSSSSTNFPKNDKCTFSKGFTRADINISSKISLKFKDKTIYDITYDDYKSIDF
Assay: PBM E-score (8-mer binding enrichment) (E-score (-0.5 to 0.5)); higher = stronger / more preferred TF binding; most listed sequences are background and not binding sites
Details: protein concentration: 200 nM; construct: GST-full length
Outline: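 Yeast transcription factors, full-length or as DNA-binding domains, were expressed with a GST tag using PURExpress in vitro transcription/translation. At about 100-200 nM they were applied to universal all-10-mer Agilent arrays, double-stranded by primer extension on fresh or once-stripped slides. Fluorescent anti-GST detected bound protein, and masliner normalised the scans. E-scores for ungapped eight-base words, pooled with reverse complements, came from the Universal PBM Analysis Suite.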

Row | Sequence | PBM E-score
1 | CGTATGAA | 0.153
2 | ATGGACTA | -0.0502
3 | ACCGCCAG | -0.0576
4 | AAGTGACG | -0.0111
5 | GAAAGTAA | 0.197
6 | AAGAGCAA | -0.00505
7 | ACATCGGT | -0.034
8 | GTGCGCAC | -0.0106
9 | CGCTAAAA | 0.0272
10 | CCCATAGA | -0.268
11 | AATGACAT | 0.0558
12 | CATTGAAC | 0.0642
13 | ACCTCAAG | -0.104
14 | TAAAGTAA | 0.142
15 | GTTCTATA | 0.116
16 | AGATCAGG | -0.123
17 | CTTGACCC | -0.0446
18 | AGCGTCAC | -0.241
19 | CTTCATGC | -0.0609
20 | GAGTCGAA | 0.0563
21 | ATGATTCC | 0.215
22 | TATGCACA | -0.0194
23 | CGCATATA | -0.0843
24 | CCCCCCTA | -0.298

Row | Sequence | PBM E-score
25 | GGCGCGTA | -0.216
26 | GATATTCC | 0.0731
27 | TCCTAGGA | -0.283
28 | ACTTTACC | 0.0831
29 | TGGGATAA | 0.0418
30 | ATCGGTCC | -0.134
31 | CCTGATAG | -0.289
32 | GTCTCGGA | 0.316
33 | AGGCTTGC | -0.253
34 | AGAGCTCG | -0.0935
35 | AGTCAAAA | 0.0904
36 | CTTCAGGA | -0.00396
37 | ACACTTCA | 0.0715
38 | CCAGCATA | -0.0643
39 | CTGGAAAA | 0.0635
40 | ACTGCAGA | 0.0406
41 | GGGTCCAC | -0.241
42 | AACTCGGC | 0.0606
43 | CTAGTTAA | 0.189
44 | CTGCGGAC | 0.165
45 | ACCACAGC | -0.247
46 | TGGAGCCA | -0.242
47 | CAGGGGTC | -0.241
48 | CCTCGTCG | -0.028

Row | Sequence | PBM E-score
49 | AGATAGGC | -0.0586
50 | TACTAAGA | 0.175
51 | CGAGTCCG | 0.426
52 | AAGACTGG | 0.0867
53 | CGACAGAG | -0.267
54 | AGAAGGTC | 0.111
55 | GGAGCAGA | -0.101
56 | AGAAGTAT | 0.16
57 | CGCGTAGA | -0.107
58 | ACCGAAGG | 0.0104
59 | GCCGAGGA | 0.1
60 | GAGGTGGA | -0.151
61 | AGCACGGG | -0.0762
62 | CAATAGAG | -0.123
63 | ACGTGCCG | -0.176
64 | CATACCTA | 0.044
65 | TCGTGACA | -0.128
66 | CCCCCGGG | -0.174
67 | CAAGTCGG | 0.0146
68 | ACTTTCGG | 0.111
69 | AACGATTC | 0.135
70 | CTACACAG | -0.108
71 | GTAGGCAC | -0.102
72 | ACCAATGC | -0.0193

Row | Sequence | PBM E-score
73 | CCGGAAAA | 0.37
74 | AGAATTGG | 0.13
75 | CGATATAA | 0.233
76 | CCATCCGG | 0.0104
77 | ACCCTTCG | -0.105
78 | ACTTCAAA | 0.0887
79 | CAAAGTAA | 0.124
80 | AATTTGGA | -0.0756
81 | ACAGATTG | -0.0506
82 | GATAAAGA | 0.114
83 | AATTGTTG | 0.0325
84 | CACTCATA | 0.16
85 | CGATGCCA | -0.206
86 | AAGGGCTC | -0.246
87 | ACGCGCAA | 0.0687
88 | CAAACCGC | -0.0415
89 | GCAGTCAC | -0.219
90 | ACCACCTG | -0.0527
91 | GTGACTCA | -0.253
92 | ACACGACG | 0.00477
93 | ATTTGTCA | 0.14
94 | ATGTAAGA | 0.221
